# According to the supplement of paper PMC9588766:
# Counter-ions that a name gives are not always drawn. In all, about 1,900 compounds were measured (“cell viability of compound + 1 nM pemigatinib relative to pemigatinib-only (DMSO) wells”: median about 0.95, lowest 2% from about 0.22 on). The list shows a part of the results.
# System: PDC-DUC18828
# Assay: cell viability of compound + 1 nM pemigatinib relative to pemigatinib-only (DMSO) wells (fraction); PDC-DUC18828 is a patient-derived cholangiocarcinoma cell line; higher = less growth inhibition
# Conditions: first compound 1 µM; pemigatinib concentration 1 nM; 72 h
# Description: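 Selleck Bioactive library screen in the patient-derived FGFR2 fusion-positive ICC cell line PDC-DUC18828 (500 cells/well). Each compound was tested at 1 uM with 1 nM pemigatinib, in triplicate, for 72 h. Viability was read by CellTiter-Glo and normalised to plate DMSO controls. Value is the paper's averaged normalised viability.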
row,SMILES,cell viability
1,Cc1cc(N2CCOCC2)cc2[nH]c(-c3c(NC[C@@H](O)c4cccc(Cl)c4)cc[nH]c3=O)nc12 + CCN1C(=O)N(c2c(F)c(OC)cc(OC)c2F)Cc2cnc3[nH]c(CN4CCOCC4)cc3c21 [pemigatinib],0.705
2,Nc1nc2c(ncn2COCCO)c(=O)[nH]1 [Aciclovir] + CCN1C(=O)N(c2c(F)c(OC)cc(OC)c2F)Cc2cnc3[nH]c(CN4CCOCC4)cc3c21 [pemigatinib],0.938
3,COc1ccc(C(=O)CC(=O)c2ccc(C(C)(C)C)cc2)cc1 [Avobenzone] + CCN1C(=O)N(c2c(F)c(OC)cc(OC)c2F)Cc2cnc3[nH]c(CN4CCOCC4)cc3c21 [pemigatinib],0.942
4,CC1(C)CCC[C@]2(C)[C@H]3CC(=O)O[C@]3(C)CC[C@@H]12 [Sclareolide] + CCN1C(=O)N(c2c(F)c(OC)cc(OC)c2F)Cc2cnc3[nH]c(CN4CCOCC4)cc3c21 [pemigatinib],0.944
5,COc1c(N2C[C@@H]3CCCN[C@@H]3C2)c(F)cc2c(=O)c(C(=O)O)cn(C3CC3)c12 [Moxifloxacin HCl] + CCN1C(=O)N(c2c(F)c(OC)cc(OC)c2F)Cc2cnc3[nH]c(CN4CCOCC4)cc3c21 [pemigatinib],1.08
6,CC(=O)OCC(=O)[C@@]1(O)[C@H](C)C[C@H]2[C@@H]3CCC4=CC(=O)C=C[C@]4(C)[C@@]3(F)[C@@H](O)C[C@@]21C [Dexamethasone Acetate] + CCN1C(=O)N(c2c(F)c(OC)cc(OC)c2F)Cc2cnc3[nH]c(CN4CCOCC4)cc3c21 [pemigatinib],0.786
7,O=C(O)C(Cc1c[nH]c2ccccc12)N1C(=O)c2ccccc2C1=O (stereo unspecified) + CCN1C(=O)N(c2c(F)c(OC)cc(OC)c2F)Cc2cnc3[nH]c(CN4CCOCC4)cc3c21 [pemigatinib],0.87
8,CCOc1cc(CC(=O)N[C@@H](CC(C)C)c2ccccc2N2CCCCC2)ccc1C(=O)O [Repaglinide] + CCN1C(=O)N(c2c(F)c(OC)cc(OC)c2F)Cc2cnc3[nH]c(CN4CCOCC4)cc3c21 [pemigatinib],1.05
9,CCOC(=O)C1=C(C)NC(C)=C(C(=O)OCC)C1c1ccccc1/C=C/C(=O)OC(C)(C)C [Lacidipine] + CCN1C(=O)N(c2c(F)c(OC)cc(OC)c2F)Cc2cnc3[nH]c(CN4CCOCC4)cc3c21 [pemigatinib],0.956
10,O=S(=O)(c1ccccc1)N(CC(F)(F)F)c1ccc(C(O)(C(F)(F)F)C(F)(F)F)cc1 + CCN1C(=O)N(c2c(F)c(OC)cc(OC)c2F)Cc2cnc3[nH]c(CN4CCOCC4)cc3c21 [pemigatinib],0.88
11,CC#CC(=O)Nc1ccc2ncnc(Nc3cccc(Br)c3)c2c1 + CCN1C(=O)N(c2c(F)c(OC)cc(OC)c2F)Cc2cnc3[nH]c(CN4CCOCC4)cc3c21 [pemigatinib],0.563
12,O=C(O)c1ccc(N2C(=O)/C(=C\c3ccc(-c4ccc([N+](=O)[O-])cc4)o3)C=C2c2ccccc2)cc1 + CCN1C(=O)N(c2c(F)c(OC)cc(OC)c2F)Cc2cnc3[nH]c(CN4CCOCC4)cc3c21 [pemigatinib],0.965
13,"COc1cc(F)c(F)c(Nc2ccc(I)cc2F)c1NS(=O)(=O)C1(C[C@H](O)CO)CC1 [Refametinib (RDEA119, Bay 86-9766)] + CCN1C(=O)N(c2c(F)c(OC)cc(OC)c2F)Cc2cnc3[nH]c(CN4CCOCC4)cc3c21 [pemigatinib]",0.82
14,C#C[C@]1(O)CC[C@H]2[C@@H]3CCc4cc(O)ccc4[C@H]3CC[C@@]21C [Ethinyl Estradiol] + CCN1C(=O)N(c2c(F)c(OC)cc(OC)c2F)Cc2cnc3[nH]c(CN4CCOCC4)cc3c21 [pemigatinib],1.03
15,O=c1cc(-c2ccccc2)oc2cc(O)cc(O)c12 [Chrysin] + CCN1C(=O)N(c2c(F)c(OC)cc(OC)c2F)Cc2cnc3[nH]c(CN4CCOCC4)cc3c21 [pemigatinib],1.02
16,COc1cc2/c(=N/c3ccc(Br)cc3F)nc[nH]c2cc1OCC1CCN(C)CC1 [Vandetanib (ZD6474)] + CCN1C(=O)N(c2c(F)c(OC)cc(OC)c2F)Cc2cnc3[nH]c(CN4CCOCC4)cc3c21 [pemigatinib],0.917
17,O=C(CCCCCN1C(=O)c2cccc3cccc(c23)C1=O)NO [Scriptaid] + CCN1C(=O)N(c2c(F)c(OC)cc(OC)c2F)Cc2cnc3[nH]c(CN4CCOCC4)cc3c21 [pemigatinib],0.866
18,C=C[C@@]1(C)CC(=O)[C@]2(O)[C@@]3(C)[C@@H](O)CCC(C)(C)[C@@H]3[C@H](O)[C@H](OC(C)=O)[C@@]2(C)O1 [Forskolin] + CCN1C(=O)N(c2c(F)c(OC)cc(OC)c2F)Cc2cnc3[nH]c(CN4CCOCC4)cc3c21 [pemigatinib],0.98

row,SMILES,cell viability
1,CCN(CC)C(=S)SSC(=S)N(CC)CC [Disulfiram] + CCN1C(=O)N(c2c(F)c(OC)cc(OC)c2F)Cc2cnc3[nH]c(CN4CCOCC4)cc3c21 [pemigatinib],0.106
2,Cc1cc(OCCCS(C)(=O)=O)cc(C)c1-c1cccc(COc2ccc3c(c2)OC[C@H]3CC(=O)O)c1 + CCN1C(=O)N(c2c(F)c(OC)cc(OC)c2F)Cc2cnc3[nH]c(CN4CCOCC4)cc3c21 [pemigatinib],1
3,NCCCCCNCC12CC3CC(CC(C3)C1)C2 [IEM 1754 dihydrobroMide] + CCN1C(=O)N(c2c(F)c(OC)cc(OC)c2F)Cc2cnc3[nH]c(CN4CCOCC4)cc3c21 [pemigatinib],0.898
4,CC1(C)O[C@@H]2C[C@H]3[C@@H]4CCC5=CC(=O)C=C[C@]5(C)[C@H]4[C@@H](O)C[C@]3(C)[C@]2(C(=O)CO)O1 [Desonide] + CCN1C(=O)N(c2c(F)c(OC)cc(OC)c2F)Cc2cnc3[nH]c(CN4CCOCC4)cc3c21 [pemigatinib],0.848
5,O=C(O)c1ccc2c(c1)nc(Nc1cccc(Cl)c1)c1ccncc12 [CX-4945 (Silmitasertib)] + CCN1C(=O)N(c2c(F)c(OC)cc(OC)c2F)Cc2cnc3[nH]c(CN4CCOCC4)cc3c21 [pemigatinib],0.947
6,O=C1NCCc2[nH]c(-c3ccncc3)cc21 + CCN1C(=O)N(c2c(F)c(OC)cc(OC)c2F)Cc2cnc3[nH]c(CN4CCOCC4)cc3c21 [pemigatinib],0.829
7,Cc1ccc(NC(=O)c2cccc(N(C)C)c2)cc1NC(=O)c1ccc(O)cc1 + CCN1C(=O)N(c2c(F)c(OC)cc(OC)c2F)Cc2cnc3[nH]c(CN4CCOCC4)cc3c21 [pemigatinib],1.04
8,COc1ccc(S(=O)(=O)Nc2cccnc2Nc2ccc(O)cc2)cc1 + CCN1C(=O)N(c2c(F)c(OC)cc(OC)c2F)Cc2cnc3[nH]c(CN4CCOCC4)cc3c21 [pemigatinib],0.423
9,CCNC(=O)CCC/C=C\C[C@@H]1[C@@H](/C=C/[C@@H](O)CCc2ccccc2)[C@H](O)C[C@@H]1O [Bimatoprost] + CCN1C(=O)N(c2c(F)c(OC)cc(OC)c2F)Cc2cnc3[nH]c(CN4CCOCC4)cc3c21 [pemigatinib],1.01
10,COC(=O)C1=C(C)NC(C)=C(C(=O)OC2CCCN(Cc3ccccc3)C2)C1c1cccc([N+](=O)[O-])c1 (stereo unspecified) [Benidipine HCl] + CCN1C(=O)N(c2c(F)c(OC)cc(OC)c2F)Cc2cnc3[nH]c(CN4CCOCC4)cc3c21 [pemigatinib],0.953
11,"O=C(CCCCCCC(=O)Nc1ccccc1)NO [Vorinostat (SAHA, MK0683)] + CCN1C(=O)N(c2c(F)c(OC)cc(OC)c2F)Cc2cnc3[nH]c(CN4CCOCC4)cc3c21 [pemigatinib]",0.948
12,O=C(/C=C/c1ccc(O)c(O)c1)c1ccc(O)cc1O [Butein] + CCN1C(=O)N(c2c(F)c(OC)cc(OC)c2F)Cc2cnc3[nH]c(CN4CCOCC4)cc3c21 [pemigatinib],0.921
13,CC[C@H]1OC(=O)C[C@@H](O)[C@H](C)[C@@H](O[C@@H]2O[C@H](C)[C@@H](O[C@H]3C[C@@](C)(O)[C@@H](O)[C@H](C)O3)[C@H](N(C)C)[C@H]2O)[C@@H](CC=O)C[C@@H](C)C(=O)/C=C/C(C)=C/[C@@H]1CO[C@@H]1O[C@H](C)[C@@H](O)[C@@H](OC)[C@H]1OC [Tylosin tartrate] + CCN1C(=O)N(c2c(F)c(OC)cc(OC)c2F)Cc2cnc3[nH]c(CN4CCOCC4)cc3c21 [pemigatinib],0.933
14,Cc1cc(NS(=O)(=O)c2ccc(N)cc2)no1 [Sulfamethoxazole] + CCN1C(=O)N(c2c(F)c(OC)cc(OC)c2F)Cc2cnc3[nH]c(CN4CCOCC4)cc3c21 [pemigatinib],0.959
15,COc1cc(N2CCC(N)CC2)ccc1Nc1ncc(Cl)c(-c2c[nH]c3ccccc23)n1 + CCN1C(=O)N(c2c(F)c(OC)cc(OC)c2F)Cc2cnc3[nH]c(CN4CCOCC4)cc3c21 [pemigatinib],0.704
16,CCOC(=O)n1ccn(C)c1=S [Carbimazole] + CCN1C(=O)N(c2c(F)c(OC)cc(OC)c2F)Cc2cnc3[nH]c(CN4CCOCC4)cc3c21 [pemigatinib],0.916
17,Nc1[nH]nc2nnc(-c3c(-c4ccccc4)nn4ccccc34)cc12 + CCN1C(=O)N(c2c(F)c(OC)cc(OC)c2F)Cc2cnc3[nH]c(CN4CCOCC4)cc3c21 [pemigatinib],1.03
18,CC1(C)S[C@@H]2[C@H](NC(=O)C(C(=O)O)c3ccccc3)C(=O)N2[C@H]1C(=O)O (stereo partly specified) [Carbenicillin disodium] + CCN1C(=O)N(c2c(F)c(OC)cc(OC)c2F)Cc2cnc3[nH]c(CN4CCOCC4)cc3c21 [pemigatinib],0.929
